# In article PMC4336329 (PLoS ONE, 2015):
# Screen size: about 310,000 compounds; about 2,200 (0.71%) showed an effect of 50% or more. Effects have a minus sign here. Some of the results follow.
# Molecular target: human ether-à-go-go-related gene (hERG) potassium channel (human, UniProt Q12809)
# Experiment: primary screen, population patch clamp on CHO cells stably expressing hERG
# Chain of human ether-à-go-go-related gene (hERG) potassium channel (Q12809 whole entry, looked up): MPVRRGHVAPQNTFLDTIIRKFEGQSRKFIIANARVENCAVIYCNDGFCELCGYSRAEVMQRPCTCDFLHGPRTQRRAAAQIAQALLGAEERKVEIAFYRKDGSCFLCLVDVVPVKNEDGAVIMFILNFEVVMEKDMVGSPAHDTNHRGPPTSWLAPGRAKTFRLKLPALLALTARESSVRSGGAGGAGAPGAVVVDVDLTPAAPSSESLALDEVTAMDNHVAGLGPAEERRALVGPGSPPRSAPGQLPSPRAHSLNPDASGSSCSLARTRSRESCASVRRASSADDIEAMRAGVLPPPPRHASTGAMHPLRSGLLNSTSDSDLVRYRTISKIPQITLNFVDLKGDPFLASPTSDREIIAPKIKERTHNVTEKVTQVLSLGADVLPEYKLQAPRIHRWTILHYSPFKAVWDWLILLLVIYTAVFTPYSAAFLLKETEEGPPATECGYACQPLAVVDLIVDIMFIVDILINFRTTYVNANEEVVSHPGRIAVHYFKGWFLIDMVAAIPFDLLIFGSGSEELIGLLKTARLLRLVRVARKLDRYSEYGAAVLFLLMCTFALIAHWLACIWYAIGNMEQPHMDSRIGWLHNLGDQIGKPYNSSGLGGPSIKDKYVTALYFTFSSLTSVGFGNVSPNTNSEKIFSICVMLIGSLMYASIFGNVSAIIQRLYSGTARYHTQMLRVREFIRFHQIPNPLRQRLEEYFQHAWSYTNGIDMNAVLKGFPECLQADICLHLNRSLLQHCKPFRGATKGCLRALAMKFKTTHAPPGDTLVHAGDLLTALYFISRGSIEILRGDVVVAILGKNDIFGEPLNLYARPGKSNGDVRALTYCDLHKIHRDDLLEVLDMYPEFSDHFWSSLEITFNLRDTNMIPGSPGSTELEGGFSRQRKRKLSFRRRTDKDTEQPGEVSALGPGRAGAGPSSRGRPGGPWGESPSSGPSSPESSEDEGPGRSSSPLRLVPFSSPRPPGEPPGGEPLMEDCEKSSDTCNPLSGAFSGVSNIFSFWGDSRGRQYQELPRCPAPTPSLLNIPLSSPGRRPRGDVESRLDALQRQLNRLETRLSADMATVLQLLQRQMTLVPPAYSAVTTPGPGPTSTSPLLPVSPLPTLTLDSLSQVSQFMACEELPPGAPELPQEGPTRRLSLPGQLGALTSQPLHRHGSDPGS
row,Structure (SMILES),"hERG current change (%, negative = inhibition) at 1uM [%]"
1,COc1ccc(CN2CCCC(C(=O)c3cccc(Cl)c3)C2)cc1 (stereo not shown),-7.39
2,COc1ccc2c(Cl)c(C(=O)N/N=C/c3ccc4c(c3)OCO4)sc2c1,20.5
3,Cc1cc(C)c(C#N)c(N2CCCC(C(N)=O)C2)n1 (stereo not shown),5.32
4,Cc1ccc(NS(=O)(=O)c2ccc(CCC(=O)NCc3cccnc3)cc2)cc1,16.8
5,COc1ccc(/C=C2/SC(=O)N(NS(=O)(=O)c3ccccc3)C2=S)cc1OC,7.58
6,Oc1ccccc1OCC(O)c1ccccc1 (stereo not shown),15.1
7,N#Cc1ccc(C(=O)NC23CC4CC(CC(C4)C2)C3)cc1,11.3
8,COC(=O)C1=C(CSc2nncn2C)NC(=O)NC1c1ccc(F)cc1 (stereo not shown),10.2
9,CCN(CC)CCCn1c2c(c(SCC(=O)Nc3ccc(C)c(F)c3)nc1=O)CCC2,-27.2
10,CCOc1ccc(Br)cc1C(=O)N/N=C/c1cccnc1,10.8
11,CN1C(=O)C(=C2CCCCCC2)SC1=S,9.27
12,CCc1nc(N[C@@H](CC(C)C)C(=O)O)c2oc3ccccc3c2n1,-9.97
13,Cc1nc2c(C)cccc2cc1C(=O)N/N=C/c1ccc(O)cc1,10.9
14,C/C(=N\NC(=O)COc1ccc2ccccc2c1)c1cccs1,-1.43
15,O=C(NCc1ccco1)c1ccc(=O)oc1,7.41
16,CC(=O)N1CC(=O)Nc2ccc(Cl)cc2C1c1ccc(F)cc1 (stereo not shown),-5.48
17,Cc1ccccc1OCC(=O)Nc1ccccc1-c1ccccc1NC(=O)COc1ccccc1C,8.66
18,O=C(Nc1ccccc1Cl)C1CCN(Cc2cnn(-c3ccccc3)c2-n2cccc2)CC1,-1.54
19,CC(=O)NCCN1C(=O)C2C3c4ccccc4C(c4ccccc43)C2C1=O (stereo not shown),10.3
20,COc1ccc(C(=O)NNc2ccccc2)cc1OC,4.53
21,Cc1cc(C)cc(C(=O)NCC(=O)OCC(=O)c2c(N)n(C)c(=O)n(C)c2=O)c1,39.2
22,CSc1n[nH]c(/N=C/c2oc(O)c3ccccc23)n1,13.8
23,COc1ccccc1C1SCCN1C(=O)c1ccc([N+](=O)[O-])cc1 (stereo not shown),-4.91

row,Structure (SMILES),"hERG current change (%, negative = inhibition) at 1uM [%]"
1,CC(Oc1ccccc1)C(=O)N1CCN=C1SCc1ccc(F)cc1 (stereo not shown),2.43
2,COc1ccc(C(=O)N2CCC(C(=O)Nc3ccccc3C)CC2)cc1OC,7.03
3,O=C(CSc1nnc(Cc2ccsc2)o1)c1ccccc1,6.74
4,Nc1nc2c(c3c1c(=O)oc1ccccc13)CCCCC2,13.3
5,COc1cc2c(cc1OC)CN(C(=O)/C=C/c1cc(OC)c(OC)c(OC)c1)CC2,2.96
6,Cn1c(CO)cnc1SCc1ccc([N+](=O)[O-])cc1,-0.423
7,COc1ccc(OCC(=O)N2N=C(C)CC2(O)C(F)(F)F)cc1 (stereo not shown),9.14
8,CCCCn1nc2cc(C(=O)NCCCCc3ccccc3)ccc2c1OCC,5.8
9,COc1ccccc1-c1noc(CCCC(=O)Nc2ccc(C(N)=O)cc2)n1,15
10,Clc1ccccc1-c1nnc(-c2cccs2)o1,7.21
11,COc1ccc(C(=O)Nc2nnc(S(=O)(=O)N(C)Cc3ccccc3)s2)cc1,8.03
12,Cl.O=C(CC(Nc1ccccc1)c1ccc(F)cc1)c1ccccc1 (stereo not shown),12.2
13,CC(C)OCCCn1c(SCC(=O)N2CCc3ccccc32)nc2ccccc2c1=O,11.1
14,CC(C)c1ccc(S(=O)(=O)N2CCN(C(=O)c3ccco3)CC2)cc1,0.807
15,Cc1ccccc1NC(=O)Cn1cnc2c(oc3nc4c(cc32)COC(C)(C)C4)c1=O,7.11
16,CCC(C)(C)NC(=O)C(c1ccc(OC)cc1)N(C(=O)CCC(=O)Nc1cc(C)on1)c1ccc(OC)cc1OC (stereo not shown),3.69
17,Cc1cc(Br)ccc1NC(=O)CN1C(=S)NC(C)(C)CC1C (stereo not shown),11
18,Cl.N=C1C(c2nc(-c3ccc(Cl)cc3)cs2)=C(O)CN1CCCN1CCOCC1,-12.3
19,CCCCN(C(=O)/C=C/c1ccc(OC)cc1)C1CCS(=O)(=O)C1 (stereo not shown),-7.27
20,CCCNC(=O)N1CCC(C(=O)c2cccc(F)c2)CC1,-5.73
21,CNC(=O)C12N=CNN=C1N(C)C(=O)N2C (stereo not shown),8.87
22,COc1cc(C(=O)NC23CC4CC(CC(C4)C2)C3)cc(OC)c1OC,12.1
23,Cc1ccccc1-n1nc2c(c1NC(=O)CCCl)CSC2,13.3

row,Structure (SMILES),"hERG current change (%, negative = inhibition) at 1uM [%]"
1,CC(=O)N1CCOc2ccc(S(=O)(=O)N(C)c3ccc(C)cc3)cc21,12.4
2,CC1CCN(C(=O)CSc2nnc(Cc3cccn3C)n2CCc2ccccc2)CC1,3.61
3,O=C(Nc1ccc2nc3n(c(=O)c2c1)CCCC3)c1ccccc1F,-3.6
4,Cc1ccc(NC(=O)CN2C(=O)S/C(=C\c3cccn3-c3cccc(C(=O)O)c3)C2=O)c(C)c1,13.6
5,Nc1nc(SCc2ccc3c(c2)OCO3)n[nH]1,9.27
6,Fc1ccc(-c2nc3ccncc3[nH]2)cc1,13.1
7,O=C(COc1cccnc1[N+](=O)[O-])NCCc1ccc(Cl)cc1Cl,-1.88
8,O=C(Nc1cccc(S(=O)(=O)N2CCCCC2)c1)c1ccc2c(=O)n3c(nc2c1)CCCCC3,-7.43
9,COc1ccc(NC(=S)NCCNC(C)=O)cc1,12.4
10,CCOC(=O)CSCc1csc(CC(=O)Nc2ccccc2C)n1,16.9
11,O=C(O)C1Cc2[nH]cnc2C(c2ccc(F)cc2)N1 (stereo not shown),11.3
12,CC(C)Cc1ccc(CN2CCC(n3nccc3NC(=O)C3CCCC3)CC2)cc1,-16.9
13,CCCCn1c(N)c(N(CC(C)C)C(=O)CC2CCCCC2)c(=O)[nH]c1=O,3.59
14,FC(F)Oc1ccc(NC(=S)NCc2nc3ccccc3[nH]2)cc1,-46.4
15,Fc1ccc(Oc2nnnn2-c2ccccc2)cc1,23.2
16,CN1CC2([N+](=O)[O-])CC=C(OCCO)C([N+](=O)[O-])(C1)C2 (stereo not shown),13.3
17,CN(C)CCCNC(=O)C1CCNCC1,13.9
18,Cc1nnc(SCc2ccccc2)n(N)c1=O,3.36
19,O=C(COC(=O)c1ccccc1)Nc1cccc(S(=O)(=O)N2CCOCC2)c1,2.97
20,Cc1ccc(N2C(=O)NC(=O)/C(=C\c3cccn3C(C)(C)C)C2=O)cc1,17.8
21,Cc1cccc(N(CC(=O)NCCSCc2ccccc2)S(C)(=O)=O)c1,16.4
22,Cc1occc1C(=O)N/N=C/c1ccc2c(c1)OCO2,11
23,Cc1ccccc1C(=O)NNC(=S)NC(=O)c1ccc(Cl)cc1Cl,11

row,Structure (SMILES),"hERG current change (%, negative = inhibition) at 1uM [%]"
1,COC(=O)c1sccc1N/C=C(\C#N)S(=O)(=O)C(C)(C)C,19.6
2,CSc1ccccc1NC(=O)CN(C)C(=O)Cn1c(=O)oc2ccccc21,13.8
3,CN(C(=O)COC(=O)c1ccc(=O)n(Cc2ccccc2)n1)C1CCCCC1,10.8
4,COc1ccc(-c2c(C(F)(F)F)nn(C)c2NC(=O)CSCC(=O)O)cc1,13.4
5,COc1cc(-c2nc(-c3ccc(NC(=O)c4ccc(Br)o4)cc3)no2)cc(OC)c1OC,7.49
6,COc1ccc(C(CC(=O)c2ccccc2)CC(=O)c2ccccc2)cc1OC,-10
7,C=CCc1ccccc1OCC(O)CN1CCN(c2ccccc2OC)CC1.Cl (stereo not shown),-52.3
8,Cc1cc(N2CCN(C)CC2)nc2ccc(NC(=S)NCc3cccs3)cc12,-10
9,O=C(c1ccc(Cl)c([N+](=O)[O-])c1)N1CCN(c2ccccc2)CC1,5.06
10,Cc1cc(C)c2nc(N(CCN(C)C)C(=O)c3ccc4ccccc4c3)sc2c1.Cl,13.5
11,COc1ccc(C)cc1NC(=O)NNC(=O)c1ccoc1C,11.1
12,COCCn1nnnc1C(c1cccs1)N1CCN2CCCC2C1.Cl (stereo not shown),13.8
13,Cc1ccc(C)c(N(C)C(=O)c2ccc3c(=O)n4c(nc3c2)CCCCC4)c1,13.9
14,Cc1sc2ccccc2[n+]1CCC(C)S(=O)(=O)[O-] (stereo not shown),-8.74
15,COC(=O)c1cccc([N+](=O)[O-])c1CS(=O)(=O)c1ccc(C)cc1,15.1
16,CCc1cc(-c2n[nH]c(=S)n2CC(C)C)cs1,1.14
17,COc1ccc(NS(=O)(=O)c2ccc(N3CCCCC3)c(N)c2)cc1,2.68
18,CSc1nc(C)cc(OCC(=O)N2CCOCC2)n1,8.96
19,Cc1ccc(C(=O)O)cc1N=Cc1cc(Br)cc(Br)c1O,25.9
20,Cc1nc(CSc2ccccc2)cc(=O)[nH]1,5.77
21,COc1cc(NC(=O)CN2C(=O)COc3ccc(S(=O)(=O)N4CCCC4)cc32)cc(OC)c1,3.87
22,COc1ccc(OC)c(C(c2nnnn2CC2CCCO2)N2CCN(C)CC2)c1.Cl (stereo not shown),12.3
